We go through 73 molecules from the supplement of paper PMC4723716.

Each structure is given as a SMILES string. ± gives the uncertainty stated by the source. In all, about 9,900 compounds were measured (“viability index relative to DMSO control”: median about 1, lowest 2% from about 0.85 on). Some of the results follow.

The test system of this assay is Plasmodium falciparum NF54 stage V gametocytes. The assay is described as follows: viability index relative to DMSO control (fraction); higher = less gametocyte killing. The conditions noted are these: 2.5 µM, library set: Broad Institute DOS, incubation time: 72 h. The essentials:
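In 1,536-well plates, 10 µl of serum-free medium holding P. falciparum NF54 stage V gametocytes (0.75% gametocytemia, 1.25% hematocrit) received compound at 2.5 µM for 72 hr at 37°C in low oxygen. After one to two hours with 3 µl of 2.5 µM MitoTracker Red CMXRos containing 0.13% saponin, red particles of 20–70 µm2 were counted in a single field per well. Viability index is reported as the particle count over the plate mean of wells treated with solvent only.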
On to `COC(=O)C[C@@H]1C[C@H]2c3cc(N)ccc3O[C@H]2[C@H](CO)O1`, for which the viability index stood at 1.05 ± 0.073.

`COc1ccc2c3c([C@@H](CO)NC[C@]33CCN(CC3)C(=O)Nc3ccc(F)cc3F)n(C)c2c1` returned a viability index of 1.06 ± 0.037.

Consider `CCc1nc(N2[C@H](C#N)[C@@H](c3ccccc3-c3ccccc3C)[C@@H]2CO)sc1C`, for which the viability index was 1.07 ± 0.088. In the case of `COc1ccccc1C#Cc1ccc([C@@H]2[C@@H](CO)N3CCCCN(C(=O)C4CCC4)C[C@H]23)cc1` it was 0.9445 ± 0.007; in that of `CC(C)CC#Cc1ccc([C@H]2[C@H](CO)N3C(=O)CN(S(=O)(=O)c4cccc(F)c4)C[C@@H]23)cc1`, 0.987 ± 0.021; in that of `N#C[C@H]1[C@@H](c2ccc(-c3cccc(F)c3)cc2)[C@@H](CO)N1c1nc(-c2ccccc2)cs1`, 1.08 ± 0.1.

The molecule `COc1ccc(NC(=O)N(C)C[C@H]2OCCCC[C@@H](C)Oc3ccc(NC(=O)c4ccncc4)cc3C(=O)N([C@@H](C)CO)C[C@H]2C)cc1` had a viability index of 1.09 ± 0.019. In the case of `C[C@@H]1CN([C@@H](C)CO)C(=O)c2cc(NS(C)(=O)=O)ccc2O[C@@H](C)CCCCO[C@@H]1CN(C)C(=O)Cc1ccccc1` it was 1.11 ± 0.032; in that of `COc1ccc2c3c([nH]c2c1)[C@@H](CO)N(C[C@]31CCN(CC1)C(=O)c1ccc2OCOc2c1)C(C)=O`, 0.989 ± 0.061. In the case of `COC(=O)C[C@@H]1C[C@@H]2c3cc(NC(=O)c4ccc5c(c4)OCO5)ccc3O[C@@H]2[C@H](CO)O1`, the viability index stood at 0.991 ± 0.033. `CO[C@@H]1CC[C@@H]2CCOc3ccc(C#N)cc3C(=O)N(C)[C@H](C)C(=O)N(C)C[C@H]1O2` showed a viability index of 1.1 ± 0.021.

`C[C@@H](NC(=O)C[C@@H]1CC[C@@H]2[C@H](COc3ccc(NC(=O)C4CCOCC4)cc3C(=O)N2C)O1)c1ccccc1` showed a viability index of 1.145 ± 0.011. `COc1cccc(C(=O)Nc2ccc3c(c2)OC[C@H](C)N(CCc2ccccc2)C[C@@H](C)[C@@H](OC)CN(C)C3=O)c1`: the viability index turned out to be 1.13 ± 0.12. In the case of `C[C@@H]1CN([C@H](C)CO)C(=O)Cc2cc(N(C)C)ccc2O[C@H]1CN(C)Cc1ccc(-c2ccccc2)cc1` it was 0.954 ± 0.039; in that of `CNC[C@H]1Oc2c(NS(=O)(=O)c3ccc(Cl)cc3)cccc2C(=O)N([C@@H](C)CO)C[C@@H]1C`, 0.893 ± 0.14; in that of `COc1cccc(-c2ccc3c(c2)[C@H]2[C@H](CCN2S(=O)(=O)c2ccccc2F)[C@H](CO)N3)c1`, 0.941 ± 0.061. To `C[C@@H]1CN([C@@H](C)CO)C(=O)CCCn2nncc2CO[C@H]1CN(C)Cc1cccc(C(F)(F)F)c1` belongs 1.09 ± 0.031; to `O=C(Nc1cccc(F)c1)N1CCCCN2[C@@H](CO)[C@H](c3ccc(C#Cc4cccnc4)cc3)[C@@H]2C1`, 1.05 ± 0.075; to `O=C1C[C@H](c2ccccc2)C(=O)N[C@@H](c2ccccc2)C/C=C\C[C@H](c2ccccc2)N1`, 0.922 ± 0.035. In the case of `O=C(C[C@@H]1CC[C@@H](NS(=O)(=O)c2ccccc2F)[C@H](CO)O1)NCCCN1CCOCC1` it was 0.969 ± 0.062; in that of `COc1cccc(CN2C[C@]3(CN(C)C3)c3c([C@@H]2CO)n(C)c2cc(OC)ccc32)c1`, 1.01 ± 0.029; in that of `CN1C(=O)c2cc(NC(=O)Cc3cccs3)ccc2OC[C@H]2O[C@@H](CC(=O)NCCc3ccncc3)CC[C@@H]21`, 1.14 ± 0.052. For the molecule `CCC(=O)N1CC2(C1)[C@@H](c1ccc(-c3ccccc3C)cc1)[C@H](CO)N2C(=O)CC`, the viability index came out at 1.09 ± 0.12.

Take `CO[C@@H]1CN(C)C(=O)c2cc(NC(=O)NC3CCCCC3)ccc2OC[C@H](C)N(CC2CCOCC2)C[C@H]1C`: the viability index is 1.11 ± 0.066. In the case of `COc1cccc(NC(=O)N2CC(=O)N3[C@H](CO)[C@@H](c4ccc(C#CCC5CCCC5)cc4)[C@H]3C2)c1` it was 1.04 ± 0.1. Molecule `CO[C@H]1CN(C)C(=O)c2cc(NS(C)(=O)=O)ccc2OC[C@H](C)N(Cc2cncnc2)C[C@@H]1C` registered a viability index of 1.04 ± 0.023. In turn, `O=C([C@@H]1[C@@H](CO)[C@@H]2Cn3c(ccc(C4=CCCCC4)c3=O)[C@H]1N2Cc1nccs1)N1CCCCC1` displayed a viability index of 1.03 ± 0.083. `O=C(C[C@H]1C[C@H]2c3cc(NC(=O)CC4CC4)ccc3O[C@H]2[C@@H](CO)O1)NCC1CC1`: the viability index was 1.14 ± 0.028. To `CC(=O)N1CC2(C1)[C@H](c1ccccc1)[C@@H](CO)N2C(=O)c1cnccn1` belongs 1.09 ± 0.025. In the case of `COc1ccc2c3c([nH]c2c1)[C@@H](CO)N(C[C@]31CN(CC2CC2)C1)C(=O)CN(C)C` it was 0.939 ± 0.018; in that of `O=C(Nc1ccc2c(c1)[C@@H]1C[C@@H](CC(=O)N3CCOCC3)O[C@@H](CO)[C@@H]1O2)Nc1ccccc1F`, 1.07 ± 0.041; in that of `COc1ccc2c3c([C@@H](CO)N(C[C@]33CCN(Cc4ccccc4OC)CC3)C(C)=O)n(C)c2c1`, 0.916 ± 0.0097. Molecule `CCC(=O)N1C[C@]2(CCN(Cc3ccc(Cl)cc3)CC2)c2c([C@@H]1CO)n(C)c1cc(OC)ccc21` had a viability index of 0.96 ± 0.11. To `O=C(CN1CCOCC1)N[C@@H]1CC[C@H](CCn2cc(C3CC3)nn2)O[C@H]1CO` belongs 1.15 ± 0.1; to `OC[C@@H]1[C@@H](c2ccc(-c3cccnc3)cc2)[C@@H]2CN(Cc3ccccn3)CCCCN12`, 0.737 ± 0.12; to `CCC(=O)N1CC2(C1)[C@H](c1ccc(-c3cccc(C)c3)cc1)[C@@H](CO)N2S(C)(=O)=O`, 1.07 ± 0.017. Consider `C[C@H](CO)N1C[C@H](C)[C@H](CN(C)C(=O)Nc2ccc(C(F)(F)F)cc2)OCCCC[C@H](C)Oc2ccc(NS(=O)(=O)c3cn(C)cn3)cc2C1=O`, for which the viability index is 1.058 ± 0.0083.

`COc1ccccc1-c1ccccc1[C@H]1[C@@H](C#N)N(C(=O)C2CCOCC2)[C@H]1CO` gave a viability index of 1.09 ± 0.085. In the case of `C[C@H](CO)N1C[C@H](C)[C@H](CN(C)C(=O)Nc2ccc3c(c2)OCO3)Oc2c(NC(=O)c3nc4ccccc4s3)cccc2C1=O` it was 0.987 ± 0.021. As for `CN(C)CC(=O)N[C@H]1CC[C@H](CCNC(=O)C2CCC2)O[C@H]1CO`, the viability index is 1.07 ± 0.13.

As for `CO[C@@H]1CN(C)C(=O)c2ccc(NC(=O)c3ccno3)cc2OC[C@H](C)N(S(C)(=O)=O)C[C@H]1C`, the viability index came to 1.16 ± 0.033. For `CN1C(=O)c2cc(NC(=O)c3ccc(F)c(F)c3)ccc2OC[C@H]2O[C@@H](CC(=O)N3CCCCC3)CC[C@@H]21`, the viability index amounted to 1.02 ± 0.079. To `COc1ccc(C#Cc2ccc3c(c2)[C@H]2[C@H](CCN2Cc2nccs2)[C@@H](CO)N3)cc1` belongs 1.04 ± 0.087; to `C[C@@H]1CCCn2nncc2COCCNC1=O`, 1.05 ± 0.0094; to `CS(=O)(=O)N1[C@H](C#N)[C@H](c2ccc(-c3ccccc3F)cc2)[C@H]1CO`, 1.14 ± 0.048. With `CS(=O)(=O)Nc1ccc2c(c1)[C@@H]1C[C@H](CC(=O)NCCc3ccccc3)O[C@H](CO)[C@@H]1O2`, the viability index turned out to be 0.977 ± 0.079. `COc1ccc2c3c([nH]c2c1)[C@@H](CO)N(C[C@]31CCN(CC1)C(=O)c1ccccc1)C(=O)CC1CC1` came in with a viability index of 1 ± 0.14. To `CN(C)CCCNC(=O)C[C@@H]1CC[C@H]2[C@@H](COC[C@@H](O)CN2Cc2cccc(C(F)(F)F)c2)O1` belongs 1.07 ± 0.11. Turning to `CC(C)C#Cc1ccc([C@H]2[C@@H](C#N)N(C(=O)c3cccc(F)c3)[C@H]2CO)cc1`, the viability index came out at 1.11 ± 0.027. As for `C[C@H]1CN([C@@H](C)CO)C(=O)c2ccccc2-c2ccccc2CO[C@H]1CN(C)C(=O)[C@@H]1CCCN1C`, the viability index was 1.06 ± 0.022.

In turn, `CCC(=O)N[C@H]1CC[C@H](CC(=O)NCc2ccccc2F)O[C@H]1CO` registered a viability index of 1.11 ± 0.091. To `CCCC(=O)Nc1ccc2c(c1)C(=O)N(C)[C@H]1CC[C@@H](CC(=O)NCc3cccc(F)c3)O[C@@H]1CO2` belongs 0.993 ± 0.055. The molecule `CC(C)NC(=O)Nc1ccc2c(c1)C(=O)N([C@@H](C)CO)C[C@@H](C)[C@H](CN(C)C(=O)C1CCCCC1)OCCCC[C@@H](C)O2` displayed a viability index of 1.126 ± 0.0012. To `OC[C@H]1[C@@H](c2ccc(C#CC3(O)CCCC3)cc2)[C@H]2CN(Cc3cncnc3)CCCCN21` belongs 1.01 ± 0.036; to `COc1ccccc1NC(=O)N1CC(=O)N2[C@H](CO)[C@@H](c3ccc(C#CC(C)C)cc3)[C@@H]2C1`, 1.08 ± 0.044. To `CC[C@H]1C/C=C\C[C@@H](c2ccc(OC)cc2OC)NC(=O)[C@H](C)CC(=O)N1` belongs 1.1 ± 0.076. `C/C=C/c1ccccc1[C@H]1[C@H](C#N)N(C(C)=O)[C@H]1CO`: the viability index is 1.03 ± 0.12. In the case of `N#C[C@@H]1[C@H](c2ccc(C3=CCCCC3)cc2)[C@@H](CO)N1C(=O)CN1CCOCC1` it was 1.14 ± 0.016; in that of `COc1ccccc1NC(=O)N1C[C@@H]2N[C@H](C1)[C@@H]2c1ccc(/C=C/c2ccccc2)cc1`, 0.571 ± 0.027; in that of `COc1cccc(CN2[C@@H]3CNC[C@H]2[C@@H]3c2ccc(-c3ccc(C#N)cc3)cc2)c1`, 1.06 ± 0.054. In the case of `COCC(=O)N1C[C@@]2(C1)CN([C@@H](CO)c1c2c2ccc(OC)cc2n1C)C(=O)NC1CCCC1` it was 0.975 ± 0.15; in that of `C[C@H]1CN([C@@H](C)CO)C(=O)c2cc(C#Cc3ccccc3)cnc2O[C@H]1CN(C)C(=O)c1ccccc1`, 0.572 ± 0.14.

Regarding `CCNC(=O)[C@@H]1[C@@H](CO)[C@@H]2Cn3c(ccc(-c4ccncc4)c3=O)[C@@H]2N1Cc1cc(F)ccc1F`, the viability index came out at 1.06 ± 0.019. In turn, `C[C@H]1CC(=O)NCC/C=C\C[C@H](c2cccc(Cl)c2)NC1=O` returned a viability index of 1.06 ± 0.052. Molecule `O=C(C[C@@H]1CC[C@H]2[C@@H](COC[C@H](O)CN2C(=O)c2ccccc2F)O1)NCc1ccc(Cl)c(Cl)c1` gave a viability index of 1.11 ± 0.095.

`CCCN1[C@H](C(=O)OC)[C@@H](CO)[C@@H]2Cn3c(ccc(-c4cccc(OC)c4)c3=O)[C@@H]21` showed a viability index of 0.99 ± 0.089. Molecule `CN1CCN(C(=O)C[C@H]2C[C@H]3c4cc(NS(C)(=O)=O)ccc4O[C@H]3[C@H](CO)O2)CC1` showed a viability index of 1.02 ± 0.1. To `CC(=O)N1[C@H](CO)[C@@H](c2ccc(-c3ccccc3F)cc2)C12CN(CC1CCOCC1)C2` belongs 1.07 ± 0.13; to `N#C[C@H]1[C@@H](c2ccccc2-c2ccccc2F)[C@@H](CO)N1C(=O)Cc1ccccc1`, 1.17 ± 0.077; to `O=C(C[C@@H]1CC[C@@H]2NC[C@@H](O)COC[C@H]2O1)Nc1nccs1`, 1.09 ± 0.092. In the case of `C[C@@H]1CN([C@@H](C)CO)C(=O)CCCn2nncc2CO[C@H]1CN(C)C(=O)c1ccc(N2CCN(C)CC2)cc1` it was 1.01 ± 0.025; in that of `CO[C@@H]1CC[C@H]2CCN(C)C(=O)[C@@H](C)N(C)C(=O)c3cccc(C#N)c3OC[C@H]1O2`, 1.08 ± 0.077; in that of `CC(C)[C@H]1C(=O)N[C@H](c2cccc(Cl)c2)C/C=C/C[C@H](C)Oc2ccccc2C(=O)N1C.CC(C)[C@H]1C(=O)N[C@H](c2cccc(Cl)c2)C/C=C\C[C@H](C)Oc2ccccc2C(=O)N1C`, 0.9865 ± 0.0032.
